By IC50 is meant the dose at which the fit gives 50% viability; where the fit passes the top or lowest dose, that dose stands as a limit. AUC, from the same fit, is the share of area under the viability curve across the 256-fold dose range; the more sensitive the line, the further below 1. For part of these data: Where the top dose is marked as inferred, it was derived from the fitted curves, not read from the paper.
Experiments:
Experiment in all cases: Viability of human cancer cell lines after 72 h of drug (GDSC screen)
PD-173074 = compound: CCN(CC)CCCCNc1ncc2cc(-c3cc(OC)cc(OC)c3)c(NC(=O)NC(C)(C)C)nc2n1 [PD-173074]; details: top dose 2 µM; top dose inferred
Description: (§1)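 Human cancer cell lines in 384-well plates, medium with 10% serum, drug for 72 h over a 256-fold dose range (nine 2-fold or five 4-fold steps up to the top dose). Adherent lines were fixed and stained with the nucleic acid dye Syto60, suspension lines read with resazurin; signal relative to control wells, capped at 0 and 100%. One two-parameter sigmoid per drug and line, fitted in a mixed model over all curves with the slope shared within a line.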

SB590885 = compound: CN(C)CCOc1ccc(-c2nc(-c3ccncc3)c(-c3ccc4c(c3)CC/C4=N\O)[nH]2)cc1 [SB590885]; details: top dose 5 µM; top dose inferred
Description: as §1

Lapatinib = compound: CS(=O)(=O)CCNCc1ccc(-c2ccc3ncnc(Nc4ccc(OCc5cccc(F)c5)c(Cl)c4)c3c2)o1 [Lapatinib]; details: top dose 2 µM
Description: as §1

TGX221 = compound: Cc1cc(C(C)Nc2ccccc2)c2nc(N3CCOCC3)cc(=O)n2c1 [TGX221]; details: top dose 10 µM
Description: as §1

| Cell Line | AUC (PD-173074) | IC50 (PD-173074) | AUC (SB590885) | IC50 (SB590885) | AUC (Lapatinib) | IC50 (Lapatinib) | AUC (TGX221) | IC50 (TGX221) |
| --- | --- | --- | --- | --- | --- | --- | --- | --- |
| TE-6 (oesophagus, adherent) | 0.884 | > 2 µM | 0.971 | > 5 µM | 0.826 | 1.5 µM | 0.969 | > 10 µM |
| TE-8 (oesophagus, adherent) | 0.968 | > 2 µM | 0.985 | > 5 µM | 0.906 | > 2 µM | 0.968 | > 10 µM |
| TE-9 (oesophagus, adherent) | 0.956 | > 2 µM | 0.919 | > 5 µM | 0.746 | 0.654 µM | 0.87 | 9.95 µM |
| TE-10 (oesophagus, adherent) | 0.988 | > 2 µM | 0.988 | > 5 µM | 0.908 | > 2 µM | 0.965 | > 10 µM |
| TE-12 (oesophagus, suspension) | 0.978 | > 2 µM | 0.983 | > 5 µM | 0.703 | 0.532 µM | 0.935 | > 10 µM |
| TE-15 (oesophagus, suspension) | 0.957 | > 2 µM | 0.975 | > 5 µM | 0.862 | > 2 µM | 0.982 | > 10 µM |
| TGBC1TKB (biliary tract, adherent) | 0.989 | > 2 µM | 0.989 | > 5 µM | 0.898 | > 2 µM | 0.961 | > 10 µM |
| TGW (neuroblastoma, adherent) | 0.992 | > 2 µM | 0.992 | > 5 µM | 0.991 | > 2 µM | 0.99 | > 10 µM |
| TK10 (kidney, adherent) | 0.953 | > 2 µM | 0.981 | > 5 µM | 0.833 | 1.68 µM | 0.931 | > 10 µM |
| TK (B-cell lymphoma, suspension) | 0.99 | > 2 µM | 0.99 | > 5 µM | 0.99 | > 2 µM | 0.99 | > 10 µM |
| TUR (B-cell lymphoma, suspension) | 0.984 | > 2 µM | 0.988 | > 5 µM | 0.988 | > 2 µM | 0.987 | > 10 µM |
| U-698-M (B-cell leukaemia, suspension) | 0.986 | > 2 µM | 0.987 | > 5 µM | 0.934 | > 2 µM | 0.934 | > 10 µM |
| UACC-257 (melanoma, adherent) | 0.982 | > 2 µM | 0.677 | 1.1 µM | 0.981 | > 2 µM | 0.854 | > 10 µM |
| VA-ES-BJ (soft tissue, adherent) | 0.983 | > 2 µM | 0.969 | > 5 µM | 0.969 | > 2 µM | 0.975 | > 10 µM |
| VAL (B-cell lymphoma, suspension) | 0.976 | > 2 µM | 0.986 | > 5 µM | 0.977 | > 2 µM | 0.956 | > 10 µM |
| VCaP (prostate, adherent) | 0.971 | > 2 µM | 0.961 | > 5 µM | 0.978 | > 2 µM | 0.98 | > 10 µM |
| WIL2-NS (lymphoid neoplasm, suspension) | 0.991 | > 2 µM | 0.987 | > 5 µM | 0.992 | > 2 µM | 0.992 | > 10 µM |
| WSU-DLCL2 (B-cell lymphoma, suspension) | 0.992 | > 2 µM | 0.993 | > 5 µM | 0.993 | > 2 µM | 0.993 | > 10 µM |
| WSU-NHL (lymphoid neoplasm, suspension) | 0.971 | > 2 µM | 0.978 | > 5 µM | 0.989 | > 2 µM | 0.961 | > 10 µM |
| YT (lymphoid neoplasm, suspension) | 0.961 | > 2 µM | 0.992 | > 5 µM | 0.989 | > 2 µM | 0.987 | > 10 µM |
| no-11 (glioma, adherent) | 0.967 | > 2 µM | 0.945 | > 5 µM | 0.983 | > 2 µM | 0.89 | > 10 µM |

Reference: the supplement of paper PMC4967469
